The record followed here is the supplement of paper PMC8512760.

The structures appear in SMILES notation. The list shows a part of the results. Most values come without repeats; read them as rough.

Test systems include HCC-1143; HCC-1187; MDA-468; SUM-149.
Common to all, as to test: cell viability relative to vehicle (% of vehicle); basal-like triple-negative breast cancer lines; higher = less cytotoxic
Common to all, as to conditions: 10 µM; 72 h
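Note: stably firefly luciferase-GFP labeled cells in 96-well plates, viability read as luciferase photon flux after d-luciferin addition, treated wells normalized to vehicle wells, single-dose high-throughput screen.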

As to `CN(C)CC(c1ccc(O)cc1)C1(O)CCCCC1.O.O=C(O)CCC(=O)O` (stereo not drawn) [Desvenlafaxine Succinate], the cell viability was found to be 74.7 with HCC-1143, 96.4 in the experiment on HCC-1187, 104 in the experiment on MDA-468 and 96.8 in the experiment with SUM-149.
`CC1=C(C(=O)OC(C)C)C(c2cccc([N+](=O)[O-])c2)C(C(=O)OC2CN(C(c3ccccc3)c3ccccc3)C2)=C(N)N1` (stereo not drawn) [Azelnidipine]: the cell viability in the experiment on HCC-1143 came out at 110; in the experiment on HCC-1187 it was 24.2; in the experiment with MDA-468 it was 76.7; in the experiment with SUM-149 it was 128.
For `OCC1OC(OC2(CCl)OC(CCl)C(O)C2O)C(O)C(O)C1Cl` (stereo not drawn) [Sucralose] the same measures were 69.6, 88.7, 98.5 and 103.
The corresponding values for `CN(CC=CC#CC(C)(C)C)Cc1cccc2ccccc12.Cl` [Terbinafine HCl] are 99.2, 83.3, 104 and 109.
For `Cc1cccc(C)c1NC(=O)C1CCCCN1C.Cl` (stereo not drawn) [Mepivacaine HCl] the same measures were 69.4, 96.2, 101 and 80.9.
Take `O=C(O)c1cc(=O)c2ccccc2o1` [Chromocarb]: the cell viability with HCC-1143 came out at 74.5; in the experiment on HCC-1187 it was 98.1; in the experiment with MDA-468 it was 92; in the experiment with SUM-149, 77.1.
For `CC[C@H](C)[C@H]1O[C@]2(CC[C@@H]1C)C[C@@H]1C[C@@H](C/C=C(\C)[C@@H](O[C@H]3C[C@H](OC)[C@@H](O[C@H]4C[C@H](OC)[C@@H](O)[C@H](C)O4)[C@H](C)O3)[C@@H](C)/C=C/C=C3\CO[C@@H]4[C@H](O)C(C)=C[C@@H](C(=O)O1)[C@]34O)O2` [Ivermectin] the same measures were 36.3, 26, 21 and 29.9.
For `O[C@@H]1CO[C@H]2[C@@H]1OC[C@@H]2O` [Isosorbide] the same measures were 69.5, 85.5, 112 and 114.
The corresponding values for `COc1ccc(CC2c3cc(OC)c(OC)cc3CC[N+]2(C)CCC(=O)OCCCCCOC(=O)CC[N+]2(C)CCc3cc(OC)c(OC)cc3C2Cc2ccc(OC)c(OC)c2)cc1OC.O=S(=O)([O-])c1ccccc1.O=S(=O)([O-])c1ccccc1` (stereo not drawn) [Atracurium Besylate] are 85.4, 61.7, 125 and 108.
On to `O=C(Nc1ccccc1)c1ccccc1O` [Salicylanilide], for which the cell viability was 146 with HCC-1143, 127 with HCC-1187, 63.5 with MDA-468 and 162 in the experiment on SUM-149.
The corresponding values for `NC(=O)NN=Cc1ccc([N+](=O)[O-])o1` [Nitrofurazone] are 106, 136, 99.1 and 97.5.
For `OC[C@@H](O)[C@@H](O)[C@H](O)[C@H](O)CO` [D-Mannitol] the same measures were 79.9, 94.6, 101 and 90.6.
The corresponding values for `CC1OC(OCC2OC(Oc3c(-c4ccc(O)c(O)c4)oc4cc(O)cc(O)c4c3=O)C(O)C(O)C2O)C(O)C(O)C1O` (stereo not drawn) [Rutin] are 121, 98.4, 108 and 119.
Take `O=C1CN(/N=C/c2ccc(-c3ccc([N+](=O)[O-])cc3)o2)C([O-])=N1.[Na+]` [Dantrolene, sodium salt]: the cell viability was found to be 83.6 with HCC-1143, 95.2 in the experiment with HCC-1187, 114 in the experiment on MDA-468 and 107 in the experiment on SUM-149.
`CN1CCC(=C2c3ccccc3C=Cc3ccccc32)CC1.Cl` [Cyproheptadine hydrochloride]: the cell viability in the experiment on HCC-1143 amounted to 74.7; with HCC-1187, 105; in the experiment on MDA-468, 139; in the experiment on SUM-149, 85.4.
For `CC(C=CC1=C(C)CCCC1(C)C)=CC=CC(C)=CC(=O)O` [Isotretinoin] the same measures were 90.4, 77.4, 91.6 and 143.
For `CCCN1CCCCC1C(=O)Nc1c(C)cccc1C.Cl.O` (stereo not drawn) [Ropivacaine hydrochloride monohydrate] the same measures were 74.2, 77.4, 105 and 105.
For `CCN(CC)CCNC(=O)c1ccc(N)cc1.Cl` [Procainamide HCl] the same measures were 84.3, 91.3, 97.1 and 95.8.
Consider `CCC(=O)NCCC1CCc2ccc3c(c21)CCO3` (stereo not drawn) [Ramelteon], for which the cell viability in the experiment on HCC-1143 stood at 88.3; in the experiment on HCC-1187, 89.1; in the experiment with MDA-468 it was 86.4; with SUM-149, 107.
For `COc1ncc(-c2ccc3nccc(-c4ccnnc4)c3c2)cc1NS(=O)(=O)c1ccc(F)cc1F` the same measures were 61.9, 64.4, 58.9 and 45.
Consider `CC(Cn1cnc2c(N)ncnc21)OCP(=O)(O)O` (stereo not drawn) [Tenofovir], for which the cell viability in the experiment with HCC-1143 came to 84.9; with HCC-1187, 124; in the experiment on MDA-468, 97; with SUM-149, 117.
The corresponding values for `CC(CCC(=O)O)C1CCC2C3C(O)CC4CC(O)CCC4(C)C3CCC12C` (stereo not drawn) [Chenodeoxycholic Acid] are 71.2, 74.6, 106 and 147.
For `CC1c2cccc(O)c2C(O)=C2C(=O)C3(O)C(O)=C(C(N)=O)C(=O)C(N(C)C)C3C(O)C21.Cl` (stereo not drawn) [Doxycycline hyclate] the same measures were 76.4, 62.2, 66.4 and 93.5.
The corresponding values for `Cc1nc2n(c(=O)c1CCN1CCC(c3noc4cc(F)ccc34)CC1)CCCC2O` (stereo not drawn) [Paliperidone] are 78.4, 94.3, 127 and 97.
Consider `NC(=O)c1cn(Cc2c(F)cccc2F)nn1` [Rufinamide], for which the cell viability in the experiment with HCC-1143 was determined as 75.1; in the experiment on HCC-1187, 97.9; in the experiment on MDA-468 it was 138; in the experiment on SUM-149, 116.
For `Cl.O=C1CC2(CCCC2)CC(=O)N1CCCCN1CCN(c2ncccn2)CC1` [Buspirone HCl] the same measures were 86.6, 108, 89.5 and 84.
For `Nc1cc(C(Cl)=C(Cl)Cl)c(S(N)(=O)=O)cc1S(N)(=O)=O` [Clorsulon] the same measures were 69.3, 73.6, 110 and 137.
The corresponding values for `O=C([O-])Cc1ccccc1Nc1c(Cl)cccc1Cl.[Na+]` [Diclofenac Sodium] are 107, 83, 100 and 114.
With `NS(=O)(=O)Cc1noc2ccccc12` [Zonisamide], the cell viability with HCC-1143 is 87.3; with HCC-1187 it was 134; in the experiment on MDA-468, 97.3; with SUM-149 it was 129.
As for `NNC(=O)c1ccncc1` [Isoniazid], the cell viability in the experiment with HCC-1143 was found to be 85.2; in the experiment with HCC-1187, 92.5; with MDA-468, 88.6; with SUM-149, 89.3.
For the compound `Cc1c(OCC(F)(F)F)ccnc1CS(=O)c1nc2ccccc2[nH]1` (stereo not drawn) [Dexlansoprazole], the cell viability was found to be 162 in the experiment with HCC-1143, 121 with HCC-1187 and 193 in the experiment with SUM-149.
Take `CCn1cc(C(=O)O)c(=O)c2cc(F)c(N3CCNCC3)cc21` [Norfloxacin]: the cell viability came to 122 in the experiment with HCC-1143, 115 with HCC-1187, 111 in the experiment on MDA-468 and 101 with SUM-149.
Consider `C[N+](C)(C)CCOC(N)=O.[Cl-]` [Carbamoylcholine chloride], for which the cell viability in the experiment with HCC-1143 is 111; with HCC-1187, 96.8; with MDA-468, 130; with SUM-149, 103.
The corresponding values for `COc1cc2nc(N3CCN(C(=O)c4ccco4)CC3)nc(N)c2cc1OC.Cl` [Prazosin HCl] are 103, 44.5, 48.7 and 116.
The corresponding values for `CNC(=O)c1ccccc1Sc1ccc2c(C=Cc3ccccn3)n[nH]c2c1` are 66.9, 58.4, 115 and 93.1.
On to `COc1cc2nccc(Oc3ccc(NC(=O)C4(C(=O)Nc5ccc(F)cc5)CC4)cc3)c2cc1OC`, for which the cell viability with HCC-1143 came to 83.4; in the experiment on HCC-1187, 65; in the experiment with MDA-468, 72.8; in the experiment on SUM-149 it was 92.
